From PubChem BioAssay AID624296 (National Center for Advancing Translational Sciences (NCATS), 2012)
Out of some 350,000 compounds screened, about 9,900 (2.8%) were called active. The shares of active, inactive and inconclusive entries below differ from those in the screen. Calls follow the shape of the dose curve; as a rule, active = well fitted activation curve with a large enough effect; inconclusive = small, poorly fitted or top-dose-only effect; inactive = no such curve, though single readings can be large or run the other way. No potency is given beside an inconclusive call; the fits are too rough.

Experiment: A quantitative high throughput screen for small molecules that induce DNA re-replication in MCF 10a normal breast cells. Also: nearly all actives have a fitted effect of over 50% in size.
Settings: MCF 10A DNA re-replication, Hoechst nuclear intensity, 48 h; series mostly up to 46.1 µM
Potency is read from the fitted curve at half-maximal effect; tags tell the direction and shape of the fitted curve.

SMILES | Potency
CC(C(=O)NC1C=CS(=O)(=O)C1)N1C(=O)/C(=C/c2ccc(Cl)cc2)SC1=S (configuration not stated) | inconclusive [activator, single point]
O=C(N/N=C/c1sc(N2CCOCC2)nc1-c1ccccc1)c1ccccc1O | inconclusive [activator, single point]
Cc1ccc(S(=O)(=O)c2cc3cc(Br)ccc3oc2=O)cc1 | inconclusive [activator, partial curve, poor fit]
CC1=C([N+](=O)[O-])C(c2ccccc2Cl)NC(=O)N1 (configuration not stated) | inconclusive [activator, partial curve, poor fit]
CCCCCc1nnc(NC(=O)Cn2cnc3ccccc3c2=O)s1 | inactive
O=C(NC(=S)Nc1cccc(Cl)c1N1CCCCC1)c1ccc2c(c1)OCCO2 | active: 4.61 µM
Cc1nn2c(N3CCN(C)CC3)c3c(nc2c1-c1ccccc1)CCCC3 | inconclusive [activator, single point]
CCOC(=O)C1Sc2[nH]c(=O)sc2C(c2ccc(Cl)cc2)C1C(=O)OCC (configuration not stated) | inconclusive [activator, partial curve, poor fit]
O=C(Nc1nc(-c2ccc(Cl)s2)cs1)c1ccncc1 | inactive
Cc1ccc(C(=O)N2CCN(c3ccc(NC(=S)NC(=O)c4cccs4)cc3)CC2)cc1 | inconclusive [activator, single point]
COCCNC(=S)N(CCc1c(C)[nH]c2ccc(F)cc12)Cc1ccco1 | inconclusive [activator, single point]
CC[n+]1c(/C=C/N(C)c2ccccc2)oc2ccc(F)cc21 | inconclusive [activator, single point]
COc1ccc(CCNS(=O)(=O)CC23CCC(CC2=O)C3(C)C)cc1OC (configuration not stated) | inconclusive [activator, partial curve, poor fit]
O=C(/C=C\Nc1ccc2c(c1)OCO2)c1ccc2c(c1)OCO2 | active: 20.6 µM
O=S1(=O)CCOC[C@H](Cc2ccccc2)N1Cc1ccc(F)cc1 | inactive
Cc1nc2ccc(NS(=O)(=O)c3c(C)c(C)cc(C)c3C)cc2s1 | inconclusive [activator, partial curve]
CC(OC(=O)CCN1C(=O)C2CC=CCC2C1=O)C(=O)Nc1ccc(F)cc1 (configuration not stated) | inconclusive [activator, partial curve, poor fit]
CC(C)C(c1nnnn1Cc1ccccc1)N(Cc1ccco1)Cc1cccs1 (configuration not stated) | inconclusive [activator, single point]
CC(C)C(=O)NC(=S)Nc1c(Cl)ccc2nsnc12 | active: 18.4 µM
Cc1ccc(S(=O)(=O)/C(C#N)=C/c2ccccc2OCc2ccccc2)cc1 | inconclusive [activator, single point]
O=C(CNC(=O)c1ccc(F)cc1)N/N=C/c1cc(Br)ccc1OC(=O)/C=C/c1ccco1 | inconclusive [activator, single point]
COc1ccc2nc(SCc3cccc(C)c3)nc(C)c2c1 | inconclusive [activator, partial curve, poor fit]
COc1ccc(C(=O)Nc2nc3cc4c(cc3s2)OCCO4)c(OC)c1 | active: 4.11 µM
O=[N+]([O-])c1ccc(C2CCCC/C2=N/O)c([N+](=O)[O-])c1 (configuration not stated) | inconclusive [activator, single point]

SMILES | Potency
O=C(C(Br)=Cc1ccccc1)c1ccccc1 | active: 16.4 µM
CCCCN(CC)CCNC(=O)c1cc2c(=O)n(C)c3ccccc3c2n1C | inconclusive [activator, single point]
CC(C)(C)NC(=S)N/N=C/c1cc(Br)c(O)c(Br)c1 | inactive
CC(NC(=O)COC(=O)c1cn(-c2ccccc2)nc1-c1cccs1)c1ccccc1 (configuration not stated) | inconclusive [activator, single point]
COc1ccc(S(=O)(=O)N2CCc3cc4c(cc3C2C)OCCCO4)cc1 (configuration not stated) | inactive
CCC(C)c1ccc(NC(=S)N2CCN(c3ccccn3)CC2)cc1 (configuration not stated) | inactive
CCn1cc(C(=O)N[C@@H](CC(C)C)C(=O)NCCCn2ccnc2)c(=O)c2cc3c(cc21)OCO3 | inactive
C=C(C)Cn1c(SCC)nc2ccccc2c1=O | inconclusive [activator, single point]
Oc1oc(-c2ccccc2Br)nc1C=Nc1ccc(Br)cn1 | inconclusive [activator, single point]
Cc1sc2nc(SCC(=O)N3CC(C)OC(C)C3)n(C)c(=O)c2c1C (configuration not stated) | inactive
O=C(Nc1ccc(OC(F)(F)F)cc1)C1CCCN(C(=O)c2ccc(Cl)cc2)C1 (configuration not stated) | inactive
Cc1ccc(OCCSc2nnc(C)c(=O)n2N)cc1 | inactive
O=C(NCCCN1CCN(c2cccc(Cl)c2)CC1)c1nc(-c2ccncc2)no1 | inactive
COc1ccc(Nc2nc(-c3cccc([N+](=O)[O-])c3)nc3ccccc23)cc1 | inconclusive [activator, single point]
Nc1[nH]c(=O)nc2snnc12 | inactive
Cc1cccc(NC(=O)CSc2cc(C(=O)c3nccn3C)c3ccccc3n2)c1 | inconclusive [activator, single point]
CC(Oc1ccc(Br)cc1)C(=O)Nc1ccncc1 (configuration not stated) | inactive
CCOC(=O)C1CCN(S(=O)(=O)c2cccc(-c3cn4cccc(C)c4n3)c2)CC1 | inconclusive [activator, partial curve, poor fit]
COCCNC(=O)CN1CCC(n2c(C)nc3cc(C(F)(F)F)ccc32)CC1 | inactive
CCOC(=O)Cn1c2ccccc2c2nc3ccccc3nc21 | inactive
O=C(CSc1nncn1-c1ccccc1)Nc1cccc(S(=O)(=O)N2CCCCC2)c1 | inactive
O=C(CCCc1ccccc1)NCc1ccc2c(c1)OCO2 | inconclusive [activator, partial curve, poor fit]
CCOC(=O)c1oc2ccc(S(=O)(=O)n3nc(-c4ccc(OC)cc4)cc3N)cc2c1C | inconclusive [activator, partial curve, poor fit]
